The results in this text go back to patent publication US20230340142A1 (SUZHOU NEOLOGICS BIOSCIENCE, published 2023).

Sequences and labels used below:
B1: B fusion protein (SEQ ID NOs:155 and 162) (other)
heavy: QGQLVQSGAEVKKPGSSVKVSCKTSGFTFSSSYISWVRQAPGQGLEWMGWIYAGTGGTSYNQKFTGRVTITVDTSTSTAYMELSSLRSEDTAVYYCARHEGKYWYFDVWGQGTTVTVSSASTKGPSVFPLAPSSKSTSGGTAALGCLVKDYFPEPVTVSWNSGALTSGVHTFPAVLQSSGLYSLSSVVTVPSSSLGTQTYICNVNHKPSNTKVDKRV[human IgG1 Fc omitted]PEAPTDPEAPTDPEAPTDIPPHVQKSVNNDMIVTDNNGAVKFPQLCKFCDVRFSTCDNQKSCMSNCSITSICEKPQEVCVAVWRKNDENITLETVCHDPKLPYHDFILEDAASPKCIMKEKKKPGETFFMCSCSSDECNDNIIFS
light: EIVMTQSPATLSVSPGERATLSCSASSSVSYVHWYQQKPGQAPRPWIYDTSNLASGFPARFSGSGSGTEYTLTISSLQSEDAAVYYCHQRSSYPWTFGGGTKVEIKRTVAAPSVFIFPPSDEQLKSGTASVVCLLNNFYPREAKVQWKVDNALQSGNSQESVTEQDSKDSTYSLSSTLTLSKADYEKHKVYACEVTHQGLSSPVTKSFNRGEC
notes: Anti-PD-L1 antibody (humanized Clone B) whose heavy chain is linked through a transferrin linker to a TGFbRII ECD trap; also called B fusion protein-1; B fusion protein - 1; copies: 2 + 2
B2: B fusion protein-23 (SEQ ID NOs:234 and 162) (other)
heavy: QGQLVQSGAEVKKPGSSVKVSCKTSGFTFSSSYISWVRQAPGQGLEWMGWIYAGTGGTSYNQKFTGRVTITVDTSTSTAYMELSSLRSEDTAVYYCARHEGKYWYFDVWGQGTTVTVSSASTKGPSVFPLAPSSKSTSGGTAALGCLVKDYFPEPVTVSWNSGALTSGVHTFPAVLQSSGLYSLSSVVTVPSSSLGTQTYICNVNHKPSNTKVDKRV[human IgG1 Fc omitted]PEAPTDPEAPTDPEAPTDPEAIPPHVQGSVNNDMIVTDNAGAVKFPQLCKFCDVRFSTCDNQKSCMSNCSITSICEKPQEVCVAVWRKNDENITLETVCHDPKLPYHDFILEDAASPKCIMKEKKKPGETFFMCSCSSDECNDNIIFS
light: B1 light
B3: B fusion protein-24 (SEQ ID NOs:235 and 162) (other)
heavy: QGQLVQSGAEVKKPGSSVKVSCKTSGFTFSSSYISWVRQAPGQGLEWMGWIYAGTGGTSYNQKFTGRVTITVDTSTSTAYMELSSLRSEDTAVYYCARHEGKYWYFDVWGQGTTVTVSSASTKGPSVFPLAPSSKSTSGGTAALGCLVKDYFPEPVTVSWNSGALTSGVHTFPAVLQSSGLYSLSSVVTVPSSSLGTQTYICNVNHKPSNTKVDKRV[human IgG1 Fc omitted]IPPHVGGSVNNDMIVTDNAGAVKFPQLCKFCDVRFSTCDNQKSCMSNCSITSICEKPQEVCVAVWRKNDENITLETVCHDPKLPYHDFILEDAASPKCIMKEKKKPGETFFMCSCSSDECNDNIIFS
light: B1 light
notes: no linker; copies: 2 + 2
B4: B fusion protein-26 (SEQ ID NOs:237 and 162) (other)
heavy: QGQLVQSGAEVKKPGSSVKVSCKTSGFTFSSSYISWVRQAPGQGLEWMGWIYAGTGGTSYNQKFTGRVTITVDTSTSTAYMELSSLRSEDTAVYYCARHEGKYWYFDVWGQGTTVTVSSASTKGPSVFPLAPSSKSTSGGTAALGCLVKDYFPEPVTVSWNSGALTSGVHTFPAVLQSSGLYSLSSVVTVPSSSLGTQTYICNVNHKPSNTKVDKRV[human IgG1 Fc omitted]PEAPTDEPEAPTDEPEAPTDEIPPHVQKSVNNDMIVTDNNGAVKFPQLCKFCDVRFSTCDNQKSCMSNCSITSICEKPQEVCVAVWRKNDENITLETVCHDPKLPYHDFILEDAASPKCIMKEKKKPGETFFMCSCSSDECNDNIIFS
light: B1 light
notes: linker (PEAPTDE)3
B5: B fusion protein-25 (SEQ ID NOs:236 and 162) (other)
heavy: QGQLVQSGAEVKKPGSSVKVSCKTSGFTFSSSYISWVRQAPGQGLEWMGWIYAGTGGTSYNQKFTGRVTITVDTSTSTAYMELSSLRSEDTAVYYCARHEGKYWYFDVWGQGTTVTVSSASTKGPSVFPLAPSSKSTSGGTAALGCLVKDYFPEPVTVSWNSGALTSGVHTFPAVLQSSGLYSLSSVVTVPSSSLGTQTYICNVNHKPSNTKVDKRV[human IgG1 Fc omitted]PEAPTDEPEAPTDEPEAIPPHVGGSVNNDMIVTDNAGAVKFPQLCKFCDVRFSTCDNQKSCMSNCSITSICEKPQEVCVAVWRKNDENITLETVCHDPKLPYHDFILEDAASPKCIMKEKKKPGETFFMCSCSSDECNDNIIFS
light: B1 light
notes: linker (PEAPTDE)2PEA; copies: 2 + 2

The target in the first test is T1, TGF-beta 1 recombinant protein (Example 11) (UniProt P01137 fragment, limits assumed).
T1 construct: also called TGF- 1; TGF-1
T1 sequence (P01137 279-390 limits assumed): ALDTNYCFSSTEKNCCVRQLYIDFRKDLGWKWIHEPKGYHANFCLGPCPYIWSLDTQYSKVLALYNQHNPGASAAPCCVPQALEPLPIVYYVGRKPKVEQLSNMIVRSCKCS
Briefly: Gator BLI; fusion protein on HFC sensor, antigen in solution; 1:1 fit.
For orientation: Kd means the constant that tells how readily two partners part at equilibrium. By koff is commonly meant the first-order rate constant of dissociation. As a reminder, the kon is a measure of how fast the partners come together. As for B1, the Kd was determined as 0.679 nM, the koff worked out at 0.00147 s⁻¹ and the kon stood at 2.17e+06 M⁻¹ s⁻¹.
As to B2, the Kd worked out at 0.331 nM, the koff turned out to be 0.000124 s⁻¹ and the on-rate (kon) turned out to be 375000 M⁻¹ s⁻¹.
As for B3, the Kd stood at 0.758 nM, the koff came out at 0.000294 s⁻¹ and the kon amounted to 387000 M⁻¹ s⁻¹.
The corresponding values for B4 are 0.727 nM, 0.00036 s⁻¹ and 495000 M⁻¹ s⁻¹.
As for B5, the Kd came to 0.436 nM, the koff turned out to be 0.000235 s⁻¹ and the kon turned out to be 538000 M⁻¹ s⁻¹.

A further test concerns the target T2, human PD-L1 recombinant protein, PD-L1-his (human, UniProt Q9NZQ7 fragment).
T2 construct: also called PD-L1 with a his-tag; not shown: his-tag
The description is as above.
Consider B1, for which the dissociation constant Kd is 8.43 nM, the koff worked out at 0.00163 s⁻¹ and the kon stood at 193000 M⁻¹ s⁻¹.
On to B2, for which the Kd amounted to 1.05 nM, the koff was determined as 0.00059 s⁻¹ and the association rate constant (kon) was determined as 560000 M⁻¹ s⁻¹.
On to B3, for which the Kd worked out at 1.31 nM, the koff was determined as 0.000662 s⁻¹ and the kon is 507000 M⁻¹ s⁻¹.
For B4, the Kd was found to be 1.28 nM, the koff is 0.00071 s⁻¹ and the kon was determined as 552000 M⁻¹ s⁻¹.
Turning to B5, the Kd came to 0.91 nM, the koff worked out at 0.000496 s⁻¹ and the kon is 545000 M⁻¹ s⁻¹.

The next test concerns the target T3, human PD-L1 (human, UniProt Q9NZQ7 fragment, limits assumed).
T3 construct: also called hPD-L1
Kind of test: sandwich ELISA: coated hPD-L1, titrated fusion protein, then rhTGF-β, biotinylated anti-TGF-β antibody and streptavidin-HRP, OD450. Background: In an ELISA, binding on a coated surface is turned into a signal by an enzyme label.
As a reminder, the EC50 (read off the curve) is the concentration at which the effect is half-maximal. The low end stands for greater potency, the high end for weaker potency. B1: the “EC50 (read off the curve)” value is around 0.01 µg/mL.
